Reference: PubChem BioAssay AID1347073 (National Center for Advancing Translational Sciences (NCATS), 2019)
About 200 (0.44%) of roughly 45,000 compounds were called active. Another 7% or so got no clear call; they are omitted. The call rests on the fitted dose curve; in most records, active means well fitted activation curve with a large enough effect; inconclusive means small, poorly fitted or top-dose-only effect; inactive means no such curve, though single readings can be large or run the other way. Some of the results follow.

assay: qHTS of TDP-43 Inhibitors: NCGC Sytravon Library Screen; settings: yeast TDP-43 toxicity rescue, BacTiter-Glo growth, 24 h; series mostly up to 46.1 µM; growth rescue (activation): at the top concentration; further: 0% is about no effect; nearly all actives have a fitted effect of over 55% in size
How it was run: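 TDP-43-expressing yeast, pregrown in raffinose, seeded at OD600 0.02 in galactose medium with compound for 24 hr at 30 deg C. Growth read by BacTiter-Glo luminescence, so rescue of toxicity appears as activation.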

Row | Structure (SMILES) | growth rescue (activation)
1 | COc1ccc(N(CC(=O)NCCC(C)C)C(=O)c2snc(C(=O)NC3CCCCC3)c2N)c(OC)c1 | inactive: 11.2%
2 | CCOc1ccc(C(=O)NCC(=O)N2CCCC2)cc1 | inactive: -6.46%
3 | COc1ccccc1/C=C/c1nc(C#N)c(NCCc2ccccc2)o1 | inactive: 4.53%
4 | O=C(O)CC(NC(=O)Cc1ccc(Cl)cc1)c1ccco1 (stereo not drawn) | inactive: -14.9%
5 | CCCOC(=O)c1ccc(NC(=O)C(CC)CC)cc1 | inactive: 9.01%
6 | CCc1cc2c(SC(C)C(=O)NC3CCCC3)ncnc2s1 (stereo not drawn) | inactive: 29.1%
7 | O=C(CCC(=O)Nc1ccccc1Cl)NNC(=O)C1CCCCC1 | inactive: 22.6%
8 | Cc1ccc(CN2CCN(/N=C/c3ccc(C(=O)O)cc3)CC2)c(C)c1 | inactive: 7.4%
9 | CCc1nc2cc3sc(CC)nc3cc2s1 | inactive: 13.5%
10 | CN1C(=O)c2ccccc2N(C)C1c1cccc(O)c1 (stereo not drawn) | inactive: 6.28%
11 | Cc1ccc(-c2cc(-c3ccc(F)cc3)c(C#N)c(N)n2)o1 | inactive: -6.47%
12 | CN(C)c1ccc(CNC(=O)C2Cc3c(-c4ccccc4Oc4ccccc4)ccnc3O2)cc1 (stereo not drawn) | inactive: 29.2%
13 | COc1ccc(N=C2O/C(=C/c3sc(=S)n(CC4CCCO4)c3O)N=C2C#N)cc1 (stereo not drawn) | inactive: -23.3%
14 | O=C(CCCC(=O)N(CC(=O)NC1CCCCC1)c1ccc(F)cc1)Nc1ccccn1 | inactive: 0.889%
15 | CC(C)(C)NC(=O)C(=O)NN=C1CCCCCCCCCCC1 | inactive: 5.91%
16 | O=C1CN(S(=O)(=O)c2ccccc2Cl)CCN1 | inactive: 10.9%
17 | Cc1nc2ccc(S(=O)(=O)N(C)CC(=O)Nc3cccc(C(F)(F)F)c3)cc2s1 | inactive: 14.1%
18 | Cc1ccc(CN2CCNC(=O)C2CC(=O)NC2CCCCCC2)o1 (stereo not drawn) | inactive: -4.88%
19 | Cc1ccc(C(=O)/C=C/c2cn(CC(O)CN3CCOCC3)c3ccccc23)cc1 (stereo not drawn) | inactive: 21%
20 | CC(=O)N1CCc2cc(Br)cc(S(=O)(=O)N3CCCCC3)c21 | inactive: 11.2%
21 | O=c1cc(CSc2ccccc2)nc(-c2ccccc2)[nH]1 | inactive: 6.97%
22 | O=C(O)COc1ccccc1/C=C1\SC(=O)N(Cc2ccc(F)cc2)C1=O | inactive: 19.3%
23 | COc1ccccc1CNC(=O)[C@@H]1CCCN1S(=O)(=O)c1ccccc1F | inactive: 10.6%
24 | CNc1oc(-c2ccco2)nc1C#N | inactive: 14.8%
25 | CC(=O)Oc1cc2oc(=O)cc(C)c2cc1Cl | inactive: 24.8%
26 | Cc1ccc(S(=O)(=O)NC(=O)C2(C)CCN2C(=O)Cc2ccc(C(C)(C)C)cc2)nc1 (stereo not drawn) | inactive: 18.8%
27 | CC1(C)Cc2c(c(N3CCOCC3)nc3sc4c(NCC5CCCO5)nnnc4c23)CS1 (stereo not drawn) | inactive: 4.31%

Row | Structure (SMILES) | growth rescue (activation)
28 | Cc1ccc2c(c1)C1CN(C)CCC1N2C(=O)COc1ccccc1F (stereo not drawn) | inactive: 8.04%
29 | COc1ccc(Nc2nc(N3CCN(S(C)(=O)=O)CC3)nc3ccccc23)c(OC)c1 | inactive: 9.85%
30 | Cc1ccc(C(=O)Nc2ccccc2C(=O)N2CCCC(C)C2)cc1 (stereo not drawn) | inactive: -2.09%
31 | CCOc1ccc(Cc2nc(C)c(CC(=O)N3CCOCC3)c(=O)[nH]2)cc1 | inactive: 7.78%
32 | CCOCCCNC(=O)C1CCN(S(=O)(=O)c2cc(Br)cc3c2N(C(=O)CC)CC3)CC1 | inactive: -4.97%
33 | COc1ccc(-n2c(N)c(C#N)c3ccc([N+](=O)[O-])cc3c2=O)cc1 | inactive: 5.2%
34 | CN(Cc1ccccc1)C(=O)c1ccc(Nc2nc(CN)cs2)nc1 | inactive: 6.37%
35 | Cc1cccc(-c2c(O)cc(=O)[nH]c2Cl)c1 | inactive: -4.49%
36 | CCC(=O)N1CCc2cc(Br)cc(S(=O)(=O)CCC(=O)N(CC)CC)c21 | inactive: 12.7%
37 | COc1ccc(C(=O)NC2CCN(S(=O)(=O)c3ccccc3)CC2)cc1 | inactive: -4.55%
38 | Cc1cccc2cc(CN(Cc3cccs3)C(=S)NCC3CCCO3)c(=O)[nH]c12 (stereo not drawn) | inactive: 21.7%
39 | COc1ccc(NC(=O)c2cccc(N3C(=O)C4C5C=CC(C5)C4C3=O)c2)cc1 (stereo not drawn) | inactive: 20.2%
40 | CCc1ccccc1NC(=O)CN1CCN(CC(=O)Nc2cc(C)ccc2OC)CC1 | inactive: -20.1%
41 | O=C(N/N=C/c1cccc([N+](=O)[O-])c1)c1ccc(Br)cc1 | inactive: 4.36%
42 | COc1cc2c(cc1OC)C1Cc3ccc(OC)c(OC)c3CN1CC2 (stereo not drawn) | inactive: 23.4%
43 | Cc1cc(=O)[nH]c(SCC(=O)N2CC3(C)CC2CC(C)(C)C3)n1 (stereo not drawn) | inactive: -11.4%
44 | CCN(CC)S(=O)(=O)c1ccc(Cl)c(NC(=O)COC(=O)c2cc(-c3ccccc3Cl)nc3ccccc23)c1 | inactive: 5.51%
45 | Cc1cc2c(c(SCC(=O)NCc3ccccc3Cl)n1)C(=O)OC2 | inactive: 7.25%
46 | Cc1cccc(/C(N)=N/OC(=O)Cc2ccccc2)c1 | inactive: 14.4%
47 | O=C(CSc1nc2ncc(Cl)cc2[nH]1)N(Cc1ccccc1)C1CCS(=O)(=O)C1 (stereo not drawn) | inactive: 1.22%
48 | CC(=O)N1CCN(C(=O)COC(=O)c2ccc(S(C)(=O)=O)cc2)CC1 | inactive: 15.8%
49 | O=C(O)c1ccccc1-c1ccccc1C(=O)Nc1cccc(Br)c1 | inactive: -0.698%
50 | O=C1NC(=Nc2ccccc2)SC1Cc1cccc(Cl)c1Cl (stereo not drawn) | inactive: 3.34%
51 | COc1ccc(/C=N/Nc2nc3ccccc3[nH]2)cc1OC | inactive: 19.4%
52 | COc1ccc(-c2nnc(NC(=O)c3ccco3)s2)cc1 | inactive: 9.16%
53 | CN(C)c1ccc(CN2CCC(C(=O)NC(c3ccc(Cl)cc3)c3cnccn3)CC2)cc1 (stereo not drawn) | inactive: -11.4%
